{"source": "PubChem BioAssay AID1347073", "about": "(National Center for Advancing Translational Sciences (NCATS), 2019)", "note": "The whole screen tested about 45,000 compounds, of which about 200 (0.44%) were called active. Roughly 7% stayed inconclusive and do not appear here. Calls follow the shape of the dose curve; as a rule, active = well fitted activation curve with a large enough effect; inconclusive = small, poorly fitted or top-dose-only effect; inactive = no such curve, though single readings can be large or run the other way. The list shows a part of the results.", "data": [{"assay": "qHTS of TDP-43 Inhibitors: NCGC Sytravon Library Screen; also: 0% is about no effect; nearly all actives have a fitted effect of over 55% in size", "details": "yeast TDP-43 toxicity rescue, BacTiter-Glo growth, 24 h; series mostly up to 46.1 µM; growth rescue (activation): at the top concentration", "in_short": "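TDP-43-expressing yeast, pregrown in raffinose, seeded at OD600 0.02 in galactose medium with compound for 24 hr at 30 deg C. Growth read by BacTiter-Glo luminescence, so rescue of toxicity appears as activation.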", "values": [{"smiles": "O=C(NCCN1C(=O)S/C(=C/c2cccnc2)C1=O)C1CC(=O)N(Cc2ccccc2)C1", "note": "(stereo not drawn)", "growth rescue (activation)": "inactive: 6.24%"}, {"smiles": "COc1cccc(CC2(CO)CCCN(Cc3ccc4c(c3)OCCO4)C2)c1", "note": "(stereo not drawn)", "growth rescue (activation)": "inactive: 9.91%"}, {"smiles": "C=CCN(c1ccccc1OC)S(=O)(=O)c1cccc(C(=O)NC2=NCCS2)c1", "growth rescue (activation)": "inactive: -61.9%"}, {"smiles": "Cc1cc(C(=O)N/N=C/C(Cl)=C/c2ccccc2)c(C)o1", "growth rescue (activation)": "inactive: 5.59%"}, {"smiles": "COc1ccccc1OCCOCCOc1c(C)cc(C)cc1Br", "growth rescue (activation)": "inactive: 5.25%"}, {"smiles": "Cc1ccc(NC(=O)CN2C(=O)c3ccccc3C2=O)c(C)c1", "growth rescue (activation)": "inactive: 7.15%"}, {"smiles": "COc1ccc(-c2nnc(SCC(=O)N3CCOCC3)o2)cc1", "growth rescue (activation)": "inactive: -24.9%"}, {"smiles": "CCC(C)Nc1nnc(SCC(=O)c2c(N)n(C3CC3)c(=O)[nH]c2=O)s1", "note": "(stereo not drawn)", "growth rescue (activation)": "inactive: -0.754%"}, {"smiles": "Cc1cccc(Oc2ccc(NC(=O)C3CC=CCC3C(=O)O)cc2)c1", "note": "(stereo not drawn)", "growth rescue (activation)": "inactive: 7.03%"}, {"smiles": "Cc1nonc1NC(=O)CSc1cn[nH]n1", "growth rescue (activation)": "inactive: -3.65%"}, {"smiles": "COc1ccc(-n2c(C)nnc2SCC(=O)Nc2ccccc2F)cc1", "growth rescue (activation)": "inactive: 5.2%"}, {"smiles": "CC(O)CCc1nc2ccc(C(=O)O)cc2[nH]1", "note": "(stereo not drawn)", "growth rescue (activation)": "inactive: 2.02%"}, {"smiles": "COc1ccccc1C(=O)COC(=O)c1ccccc1O", "growth rescue (activation)": "inactive: 20.7%"}, {"smiles": "CC(CC(=O)O)CC(=O)NNC(=O)c1cccc(Br)c1", "note": "(stereo not drawn)", "growth rescue (activation)": "inactive: 9.56%"}, {"smiles": "Cc1c(C#N)c2ccccc2n1CC(=O)NCc1cccnc1", "growth rescue (activation)": "inactive: 19.1%"}, {"smiles": "COc1ccc(-n2ncc3c2ncn2nc(-c4ccc(OC)c(OC)c4)nc32)cc1", "growth rescue (activation)": "inactive: 1.5%"}, {"smiles": "Cn1c(=O)c2c(nc(NCc3ccco3)n2CCc2ccccc2)n(C)c1=O", "growth rescue (activation)": "inactive: -26.7%"}, {"smiles": "Cc1ccc(F)cc1NC(=O)CCOc1ccccc1", "growth rescue (activation)": "inactive: 19.9%"}, {"smiles": "CC(=O)NS(=O)(=O)c1ccc(NC(=O)c2cc(-c3cccs3)nc3ccccc23)cc1", "growth rescue (activation)": "inactive: -12.3%"}, {"smiles": "Cc1cccnc1NC1(C(F)(F)F)N=C2SCCN2C1=O", "note": "(stereo not drawn)", "growth rescue (activation)": "inactive: 2.86%"}, {"smiles": "COc1cccc(NC(=O)CCC(=O)Nc2cc(OC)c(NC(=O)c3cccs3)cc2OC)c1", "growth rescue (activation)": "inactive: -3.62%"}, {"smiles": "O=C(Nc1ccc(S(=O)(=O)N2CCCC2)cc1)C1CC(=O)N(c2ccc(F)cc2)C1", "note": "(stereo not drawn)", "growth rescue (activation)": "inactive: -1.86%"}, {"smiles": "C=CCn1c(SCC(N)=O)nnc1-c1cc2c(s1)CCC(CC)C2", "note": "(stereo not drawn)", "growth rescue (activation)": "inactive: 1.59%"}, {"smiles": "O=C(CN1C(=O)C2CC=CCC2C1=O)Nc1nc2ccc(F)cc2s1", "note": "(stereo not drawn)", "growth rescue (activation)": "inactive: -6.62%"}, {"smiles": "O=C(CNCCc1ccc(Cl)cc1Cl)NCc1ccco1", "growth rescue (activation)": "inactive: 6.77%"}, {"smiles": "Cc1cc(C)n(-c2ccc(Cl)c(Cl)c2)n1", "growth rescue (activation)": "inactive: 16%"}, {"smiles": "COc1ccc(CCNC(=O)c2ccccc2NS(=O)(=O)c2c(F)cccc2F)cc1", "growth rescue (activation)": "inactive: 5.85%"}, {"smiles": "Cn1c(=O)c2cc(NC(=O)NCCc3ccccc3)ccc2n1Cc1ccc(F)cc1", "growth rescue (activation)": "inactive: -1.6%"}, {"smiles": "COc1ccc(Cn2c(=O)[nH]c3cc(C(=O)NCCCN4CCCCCC4)ccc3c2=O)cc1", "growth rescue (activation)": "inactive: 1.68%"}, {"smiles": "FC(F)(F)c1cccc(Nc2nc3nonc3nc2Nc2ccc(Cl)cc2)c1", "growth rescue (activation)": "inactive: -91.5%"}, {"smiles": "CS(=O)(=O)N1CCN(c2ccccc2NC(=O)c2ccc(Cl)cc2)CC1", "growth rescue (activation)": "inactive: 27.1%"}, {"smiles": "COc1ccc(/C=C/C(=O)NCc2ccccn2)cc1OC", "growth rescue (activation)": "inactive: 2.94%"}, {"smiles": "Cc1cccc(N2CC(C(=O)OCC(=O)Nc3sccc3C(N)=O)CC2=O)c1C", "note": "(stereo not drawn)", "growth rescue (activation)": "inactive: 6.53%"}, {"smiles": "N#C/C(=C\\c1c[nH]c2ccccc12)C(=O)NCC1CCCO1", "note": "(stereo not drawn)", "growth rescue (activation)": "inactive: 14.8%"}, {"smiles": "COc1ccc(/C=C(\\NC(=O)c2ccc([N+](=O)[O-])cc2)C(=O)NCCCN2CCOCC2)cc1", "growth rescue (activation)": "inactive: 2.51%"}, {"smiles": "CC(C)(Cc1ccc(O)cc1)NC(=O)CC(=O)N=Nc1c(O)[nH]c2cc(Br)ccc12", "growth rescue (activation)": "inactive: -2.7%"}, {"smiles": "COc1ccc(/C=C2\\SC(=S)N(NS(=O)(=O)c3ccc(C)cc3)C2=O)c(OC)c1", "growth rescue (activation)": "inactive: 4.05%"}, {"smiles": "Cc1ccc([N+](=O)[O-])cc1NC(=O)c1ccoc1C", "growth rescue (activation)": "inactive: -2.49%"}, {"smiles": "Cc1ccc(NC(=O)CSc2nnnn2C)cc1S(=O)(=O)N(C)C", "growth rescue (activation)": "inactive: 7.26%"}, {"smiles": "COc1cc(Cl)c(C)cc1NC(=O)CCNC(=O)c1ccco1", "growth rescue (activation)": "inactive: 7.72%"}, {"smiles": "COc1cccc(/C=N/n2c(-c3cc(C)[nH]n3)n[nH]c2=S)c1O", "growth rescue (activation)": "inactive: -13.2%"}, {"smiles": "CCN(C(=O)Cn1c(=O)oc2cc(S(=O)(=O)N3CCCCCC3)ccc21)c1cccc(C)c1", "growth rescue (activation)": "inactive: 2.97%"}, {"smiles": "COc1ccc(-c2cc(C(=O)NC(Cc3c[nH]c4ccccc34)C(=O)O)c(C)o2)cc1OC", "note": "(stereo not drawn)", "growth rescue (activation)": "inactive: -3.51%"}, {"smiles": "O=C(Nc1ccc(N2CCOCC2)cc1)c1ccc([N+](=O)[O-])o1", "growth rescue (activation)": "inactive: 29.1%"}, {"smiles": "O=C(CN1C(=O)NC(Cc2c[nH]c3ccccc23)C1=O)NCCc1ccccc1", "note": "(stereo not drawn)", "growth rescue (activation)": "inactive: -10.4%"}, {"smiles": "CC(=O)N1CCN(c2ccc(Nc3nc(C)nc4c3oc3ccccc34)cc2)CC1", "growth rescue (activation)": "inactive: 18.8%"}, {"smiles": "CCN(CC(=O)NCc1cccs1)C(=O)c1cccc(S(=O)(=O)N2CCc3ccccc32)c1", "growth rescue (activation)": "inactive: 9.72%"}, {"smiles": "COc1ccc(S(=O)(=O)N2CCc3ccccc32)cc1C(=O)N1CCC(C)CC1", "growth rescue (activation)": "inactive: 13.1%"}, {"smiles": "O=c1[nH]cnc2c1nc(NCc1ccccc1)n2C1O[C@@H](CO)[C@H](O)[C@@H]1O", "note": "(stereo partly drawn)", "growth rescue (activation)": "inactive: -9.67%"}, {"smiles": "Cc1cccc(S(=O)(=O)NC(=O)C2(C)CCN2C(=O)CCC2CCCC2)c1", "note": "(stereo not drawn)", "growth rescue (activation)": "inactive: 10.9%"}, {"smiles": "O=c1nc2ccccc2c2n1CC(CN1CCN(Cc3ccccc3)CC1)N2", "note": "(stereo not drawn)", "growth rescue (activation)": "inactive: 22.7%"}, {"smiles": "COc1ccc2[nH]c(=O)c(CNc3ccccc3C)cc2c1", "growth rescue (activation)": "inactive: -21.2%"}, {"smiles": "CCCCC(=O)N/C(N)=N/c1nc2ccccc2o1", "growth rescue (activation)": "inactive: 25.7%"}, {"smiles": "COc1ccc(-c2csc(NC(=O)C3CC(=O)N(c4ccc5c(c4)OCCO5)C3)n2)cc1", "note": "(stereo not drawn)", "growth rescue (activation)": "inactive: 19.4%"}, {"smiles": "CCC(C)c1ccccc1N=Cc1ccc2c(c1)OCO2", "note": "(stereo not drawn)", "growth rescue (activation)": "inactive: 1.17%"}, {"smiles": "CCCC(=O)C1=C(O)C(C(=O)OC)C(C)(C)CC1=NCCc1ccccc1", "note": "(stereo not drawn)", "growth rescue (activation)": "inactive: 3.94%"}, {"smiles": "Cc1cccc(NC(=O)C(=O)NCCCN2CCOCC2)c1", "growth rescue (activation)": "inactive: 2.6%"}, {"smiles": "C=CCn1c(-c2ccccc2)nc2nc3ccccc3nc21", "growth rescue (activation)": "inactive: 19.5%"}, {"smiles": "CC(=O)Nc1ccc(NC(=O)CC2SC(=O)N(CC(=O)c3ccccc3)C2=O)cc1", "note": "(stereo not drawn)", "growth rescue (activation)": "inactive: 3.82%"}, {"smiles": "Nc1nc(NC(=O)c2ccccc2Cl)nn1-c1ccccc1", "growth rescue (activation)": "inactive: 3.63%"}, {"smiles": "C=CCNC(=S)N/N=C(\\C)c1ccc(OC)cc1", "growth rescue (activation)": "inactive: 10.1%"}, {"smiles": "COc1ccc(C)cc1NC(=O)CCNS(=O)(=O)c1cccc(C(F)(F)F)c1", "growth rescue (activation)": "inactive: -11.5%"}, {"smiles": "CCN1CCN(CC(O)COc2ccc(C)c(C)c2)CC1", "note": "(stereo not drawn)", "growth rescue (activation)": "inactive: 8.27%"}, {"smiles": "Cc1ccccc1C(=O)Nc1ccc(N2CCCCCC2)cc1", "growth rescue (activation)": "inactive: 13.2%"}, {"smiles": "COc1ccc(/C=N/NC(=O)c2ccc(=O)[nH]n2)cc1OC", "growth rescue (activation)": "inactive: -4.71%"}, {"smiles": "CC(Sc1nc2sccc2c(=O)n1-c1ccccc1)C(N)=O", "note": "(stereo not drawn)", "growth rescue (activation)": "inactive: 12.2%"}, {"smiles": "C=C1CCC[C@]2(C)C[C@H]3OC(=O)C(CN[C@@H](C)c4ccccc4)[C@H]3CC12", "note": "(stereo partly drawn)", "growth rescue (activation)": "inactive: 17.2%"}, {"smiles": "Cc1cc2oc(=O)cc(CN3CCOCC3)c2cc1C(C)C", "growth rescue (activation)": "inactive: -27.6%"}]}]}
